Details: Homo sapiens, pH 7.4, Thermal, DSC, Phosphate 7 mM, reversible: Yes

Insulin wild type (letters omitted)
unfolding enthalpy (calorimetric) (4H3N 10 mM): 57.6 kcal/mol
unfolding enthalpy (van 't Hoff) (4H3N 10 mM): 381 kcal/mol
unfolding enthalpy (calorimetric) (KSCN 10 mM): 61.7 kcal/mol
unfolding enthalpy (van 't Hoff) (KSCN 10 mM): 370 kcal/mol
unfolding enthalpy (calorimetric) (KSCN): 68.8 kcal/mol
unfolding enthalpy (van 't Hoff) (KSCN): 481 kcal/mol
unfolding enthalpy (calorimetric) (NaCl 10 mM): 55.2 kcal/mol
unfolding enthalpy (van 't Hoff) (NaCl 10 mM): 373 kcal/mol
unfolding enthalpy (calorimetric) (PABA 10 mM): 58.1 kcal/mol
unfolding enthalpy (van 't Hoff) (PABA 10 mM): 380 kcal/mol

Reference: FireProtDB (doi:10.1021/bi0524520)
